Measured values as given in the supplement of paper PMC4604168 (melanoma cell lines).
This is one part of the list. Repeats are few or missing, and single values can be far off.

How the values were obtained:
Assay in all cases: cell count relative to DMSO control; melanoma cells; higher = more viable cells
Settings in all cases: library dose: low library concentration; 72 h
WM115 = test system: WM115
WM1716 = test system: WM1716
WM1745 = test system: WM1745
WM3526 = test system: WM3526
WM3619 = test system: WM3619
WM451Lu = test system: WM451Lu
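Further: cell number obtained by counting DAPI-stained nuclei in high-throughput microscope images with image analysis software, screen run in 1,536-well plates.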

Structure (SMILES)	cell count (WM115)	cell count (WM1716)	cell count (WM1745)	cell count (WM3526)	cell count (WM3619)	cell count (WM451Lu)
CCN(CC)CCNC(=O)c1c(C)[nH]c(/C=C2\C(=O)Nc3ccc(F)cc32)c1C [sunitinib] + CN(C)S(=O)(=O)c1ccc2c(c1)/C(=C/c1cc3c([nH]1)CCCC3)C(=O)N2 [SU6656] (first compound 0.4 µM, partner dose 0.4 µM)	75.5%	124%	82.1%	64.8%	113%	82.9%
Cn1cnc2c(F)c(Nc3ccc(Br)cc3Cl)c(C(=O)NOCCO)cc21 [selumetinib] + O=C(O)c1ccc2c(c1)nc(Nc1cccc(Cl)c1)c1ccncc12 [CX4945] (first compound 0.015 µM, partner dose 0.4 µM)	78.5%	108%	102%	66.6%	53.7%	123%
COc1cc([C@@H]2c3cc4c(cc3[C@@H](O[C@@H]3O[C@@H]5CO[C@@H](C)O[C@H]5[C@H](O)[C@H]3O)[C@H]3COC(=O)[C@H]23)OCO4)cc(OC)c1O [etoposide] + NC(=O)c1ccc(N(C(N)=O)c2c(F)cccc2F)nc1-c1ccc(F)cc1F [VX702] (first compound 0.02 µM, partner dose 0.4 µM)	97.8%	93.9%	117%	116%	99.5%	88.4%
Cn1cnc2c(F)c(Nc3ccc(Br)cc3Cl)c(C(=O)NOCCO)cc21 [selumetinib] + CC(=O)O[C@@]12CO[C@@H]1C[C@H](O)[C@@]1(C)C(=O)[C@H](O)C3=C(C)[C@@H](OC(=O)[C@H](O)[C@@H](NC(=O)OC(C)(C)C)c4ccccc4)C[C@@](O)([C@@H](OC(=O)c4ccccc4)[C@H]21)C3(C)C [Docetaxel] (first compound 0.015 µM, partner dose 0.0001 µM)	64.6%	67.6%	65.4%	29.8%	52.8%	67.9%
